# Measured values as given in ChEMBL document CHEMBL4888484, “Replenishing the malaria drug discovery pipeline: Screening and hit evaluation of the MMV Hit Generation Library 1 (HGL1) against asexual blood stage Plasmodium falciparum ,using a nano luciferase reporter read-out” (2022).
# Screen size: about 150,000 compounds; about 540 (0.36%) showed an effect of 50% or more. This is one part of the list.
# Tested on: Plasmodium falciparum
# Assay: Primary screen in NF54 nanoGlo assay, in single point, at 2uM, 72h; a lower Z score goes with more inhibition
# Assay type: functional, Erythrocyte
# Details: timepoint 72 hour
Structure (SMILES),% Inhibition [%],Z score
CCC1CC(CC(=O)NS(=O)(=O)c2ccnn2C)CCO1 (stereo not drawn),33,-4.73
Cc1[nH]c(=O)c(C(=O)N[C@H](c2ccccn2)C(F)(F)F)c(C)c1C,-9,1.73
COc1ccc([C@@H](C)NC(=O)N2CCCC(C)(F)C2)c(OC)c1 (stereo partly drawn),1,-0.1
Cc1nc(C(C)C)sc1[C@H](C)NCCCn1ccnc1,-2,0.28
Cn1nc(-c2ccccc2)c(CN2CCOCC2)c1Cl,-8,1.55
CC1CN(c2ccc(NC(=O)N(C)CC3CCCO3)cc2)CC(C)O1 (stereo not drawn),-14,1.21
CC1CN(CC2CCCO2)CCC1NCc1ccnc(OCC2CC2)c1 (stereo not drawn),8,-0.69
COc1ccc(OC[C@@H](O)CN2CCC(O)CC2)c(CN(C)CCC2CCOCC2)c1,-13,1.34
CN(C)C(=O)c1ccc(Cl)cc1NCCOCC(F)(F)F,0,0.02
C[C@H](NC(=O)N(C)Cc1ncc[nH]1)C(F)(F)F,4,-0.88
CC(C)c1cc(=O)n(CCC2OCCO2)cn1,-17,3.21
N#Cc1cccnc1NCc1ccc(S(=O)(=O)N2CCCC2)cc1,-7,0.99
Cc1ccc(CNC(=O)N2C[C@@H]3CC[C@H]2CN(C(=O)c2ccncc2)C3)cc1,-9,1.32
O=C1NCCN1C1CN(Cc2cccc(-c3ccccc3)c2)C1,-4,0.54
C[C@H](O)CN(C)c1nccnc1N(C)C,0,0
CCC(=O)NC[C@@H]1C[C@H](F)CN1S(=O)(=O)c1ccc(Cl)s1,3,-0.46
CCOC(=O)c1coc(N2CCC3(CC2)CC(=O)N(Cc2ccccc2)C3)n1,4,-0.49
O=C(CCc1ccccc1F)N1CC(CN2C(=O)COC2=O)C1,-5,0.87
COc1cccc(NC(=O)N2C[C@@H]3CC[C@H]2CN(Cc2[nH]cnc2C)C3)c1,-11,1.48
Cc1ccc([C@H](C)NC(=O)CCn2cccn2)cn1,-7,1.24
Cc1ccccc1[C@@H](NC(=O)NC1(C(N)=O)CCCC1)c1ccncc1,-3,0.5

Structure (SMILES),% Inhibition [%],Z score
CCCN1C[C@@H](NS(=O)(=O)c2ccc(-c3cc(C(F)(F)F)on3)o2)CC1=O,-12,1.31
CN(C)[C@@]1(c2nnnn2C2CCCC2)CCN(C(=O)c2c[nH]nc2-c2ccccc2)C1,-13,1.48
O=C(Nc1cnn(-c2ncncc2N2CCCCC2)c1)c1ccco1,-16,1.76
CCOC(=O)Cc1c(-[n+]2ccccc2)[nH]c2ccccc12,1,-0.17
c1cncc(Nc2nncn2CC2CCCCCC2)c1,-2,0.22
Cc1cc(N2CC[C@H](OCc3csc(C)n3)C2)ccn1,-4,0.63
Cc1sc2nc(-c3cccs3)nc(N3CC(O)C3)c2c1C,8,-1.43
O=C1C2ON(c3ccccc3)C(c3cc(Br)ccc3O)C2C(=O)N1c1cccc2ccccc12 (stereo not drawn),-17,1.84
Cc1cc(F)c(S(=O)(=O)NC(=O)c2cnn3c2CCC3)c(F)c1,-4,0.55
Cn1c(C2CC2)nc2cc(N[C@H]3CCCOC3)ccc21,-16,1.64
Cc1cnc(C(=O)N2CCCCCCC2)cn1,2,-0.27
Cc1ccsc1CNCCn1cccn1,-11,1.38
Cc1cnc(CCNC(=O)C(C)C)n1C1CCCCC1,-1,0.2
O=C(NCCc1ccc(F)cc1)c1coc(NC(=O)c2cnccn2)n1,11,-1.92
Cc1cc(NC(=O)[C@H]2CC(=O)N(C(C)C)C2)n(C2CCCCC2)n1,-9,1.29
Cc1ccccc1C(=O)N(Cc1cc(Cl)ccc1OCc1nc(CO)cs1)[C@@H](C)C(C)C,-2,0.17
Cc1ccc(CN2CC[C@@H](c3nc(C)no3)N(S(C)(=O)=O)CC2)nc1,1,-0.21
NCCNCCOCCOc1ccc(Cl)c(Cl)c1,20,-2.69
Cc1cc(C)c(-c2cc(C(=O)N(CCC(=O)NC[C@H]3CCCO3)CC(C)C)no2)c(C)c1,7,-0.93
O=C1CC[C@]2(CNC(=O)c3ccc4ccccc4n3)CCCC=C2N1,-15,2.21
Cc1cc(N2CCN(S(=O)(=O)c3cccs3)CC2)nc(C(C)C)n1,-11,1.5

Structure (SMILES),% Inhibition [%],Z score
Fc1cccc(-c2c3c(nn2-c2ccc(Cl)c(Cl)c2)CCc2ccccc2-3)c1,-6,0.68
O=C(CN1CCOCC1)N1c2ccccc2CCc2ccccc21,6,-0.71
COc1ccc(CC[C@H]2CCCCN2C(=O)C2CCNCC2)cc1OC,-4,0.6
Cc1ccc(N2CC(C(=O)N3CCCC(c4ccnc(N)n4)C3)CC2=O)cc1 (stereo not drawn),4,-0.49
N#CC12C(N)=NC3(OCCO3)C1(C#N)C2c1ccc2c(c1)OCO2 (stereo not drawn),6,-0.69
COc1nc2c(cc1CNc1ccnc(C)n1)C(=O)N(C1CCCC1)C2,5,-0.74
CCCNC(=O)C1CCN(S(=O)(=O)c2ccc3c(ccn3C)c2)CC1,-11,1.7
CCOc1cccc(-c2ccc3nc(-c4cccc(OC)c4)c(CCC(=O)NCCc4ccc(OC)c(OC)c4)n3c2)c1,22,-4.22
CCN(CC)S(=O)(=O)c1ccc(N2CCOCC2)c(NC(=O)c2ccc3c(c2)OCCO3)c1,-3,0.6
Cc1nc2nc3c(c(N4CCN(c5cc(Cl)ccc5C)CC4)n2n1)CCCC3,-21,1.93
N#Cc1ccc(N(CCO)Cc2csc(-c3ccco3)n2)cc1,-4,0.5
Cc1ccc(-c2noc3c(Nc4ccc(C)c(Cl)c4)ncnc23)cc1,1,-0.09
CC(C)c1ccc(CCN(C)C2CCN(S(C)(=O)=O)CC2)cc1,12,-1.73
CN(C)c1noc(CN(Cc2cccc(O)c2)[C@H]2CC[C@H](O)CC2)n1,-9,1.39
CC(Oc1cccnc1)C(=O)N1CCCC(S(N)(=O)=O)C1 (stereo not drawn),28,-3.14
O=C(c1ccc(F)c2ccccc12)N1CCC(N2C(=O)CCCC2=O)CC1,-11,1.44
O=c1[nH]c2cccnc2n1C1CCN(c2ncnc3[nH]ccc23)CC1,1,-0.23
Cc1cc(CNC(=O)[C@@H](C)CN2CCOCC2)cnc1C,-6,1.25
Cc1cnc(C(=O)NCC2(c3ccccc3)CC2)cn1,-11,1.73
Cc1cccc(S(=O)(=O)N2[C@@H]3CC[C@H]2CC(NC(=O)c2ccc(F)cc2)C3)c1 (stereo partly drawn),-15,2.76
O=C1CCC[C@@H](C(=O)Nc2cc(Cl)c(Cl)cc2O)N1,-2,0.29

Structure (SMILES),% Inhibition [%],Z score
Cc1cc(=O)cc(C(=O)N[C@@H](CC(C)C)C(N)=O)n1C,-3,0.42
CCOc1ccc(CNCCN2CCCC[C@@H]2CO)cn1,0,0.08
CCOC(=O)C(=O)Nc1ccc(C)c(Cl)c1,-2,0.4
CN(Cc1ccccc1)CC(C)(C)NCC(=O)NCc1ccc(F)cc1,-6,0.86
CCOCCCNC(=O)N1CCCCC[C@@H]1CN1CCCC1,7,-1.09
CN1CCN([C@H]2CCCCN(C(=O)Nc3ccc(N(C)C4CCCCC4)c(F)c3)C2)CC1,-17,2.39
CC[C@@H](C(=O)N1CCC2(CC1)C(=O)N(CC(=O)N(C)C)CN2c1ccccc1)c1ccccc1,1,-0.14
COc1ccc(CN2CCN(C(=O)CN3CCOCC3)CC2)c(Br)c1OC,1,-0.13
CC[C@H](NC(=O)CCC(=O)N(C)C)c1ccc(C)cn1,-15,1.59
COc1nn(C)cc1C(=O)N(Cc1cccs1)Cc1cccn1C,-14,1.57
COCCCN(C[C@@H]1CCCN2CCCC[C@H]12)C(=O)C1CC(=O)N(c2n[nH]c3ccccc23)C1 (stereo partly drawn),-19,2.4
COc1ccc(CCNC(=O)[C@@H](NS(C)(=O)=O)C(C)(C)C)cc1OC,26,-2.92
CN1CCCN(Cc2ccc3c(c2)CCO3)CC1=O,-6,0.76
COc1ccc(Cl)cc1C(=O)N1CCCN(c2nnc3ccccn23)CC1,1,-0.23
N#Cc1c(N)nc2c(c1-c1cnc(N3CCCC3)s1)C[C@@H](N)CC2,-3,0.43
CN(C)c1ccnc(NC(=O)NCc2ccco2)c1,-14,1.17
Cc1c(C(=O)N2CC[C@H](Nc3ncccn3)[C@@H](O)C2)cnc2ccnn12,-7,1.31
C[C@H](NC(=O)NOCc1ccc(C(F)(F)F)cc1)c1nc[nH]n1,-16,2.58
CCc1oc2c(NC(=O)N(C)[C@@H](C)CC(=O)NC)cccc2c1C,-12,1.61
CC1CCC(NC(=O)[C@]2(C)CCC(=O)N2CCc2ccc(Cl)cc2)CC1 (stereo partly drawn),-11,1.86
CC[C@H](NC(=O)Cc1cn(C)c2ncccc12)c1cccs1,-1,0.22
